{"source": "PubChem BioAssay AID488969", "about": "(Vanderbilt High Throughput Screening Facility, 2010)", "note": "In all, about 110,000 compounds were measured (“z-score”: median about -0.1, highest 2% from about 2 on). The list shows a part of the results. Active and inactive are the calls of the source.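 The calls were made as follows: active = z-score in the third read window above 3 or below -3; inactive = the rest.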"}
{"target": "Metabotropic glutamate receptor 8 (Rattus norvegicus) (UniProt P70579)", "sequence (P70579 whole entry, looked up)": "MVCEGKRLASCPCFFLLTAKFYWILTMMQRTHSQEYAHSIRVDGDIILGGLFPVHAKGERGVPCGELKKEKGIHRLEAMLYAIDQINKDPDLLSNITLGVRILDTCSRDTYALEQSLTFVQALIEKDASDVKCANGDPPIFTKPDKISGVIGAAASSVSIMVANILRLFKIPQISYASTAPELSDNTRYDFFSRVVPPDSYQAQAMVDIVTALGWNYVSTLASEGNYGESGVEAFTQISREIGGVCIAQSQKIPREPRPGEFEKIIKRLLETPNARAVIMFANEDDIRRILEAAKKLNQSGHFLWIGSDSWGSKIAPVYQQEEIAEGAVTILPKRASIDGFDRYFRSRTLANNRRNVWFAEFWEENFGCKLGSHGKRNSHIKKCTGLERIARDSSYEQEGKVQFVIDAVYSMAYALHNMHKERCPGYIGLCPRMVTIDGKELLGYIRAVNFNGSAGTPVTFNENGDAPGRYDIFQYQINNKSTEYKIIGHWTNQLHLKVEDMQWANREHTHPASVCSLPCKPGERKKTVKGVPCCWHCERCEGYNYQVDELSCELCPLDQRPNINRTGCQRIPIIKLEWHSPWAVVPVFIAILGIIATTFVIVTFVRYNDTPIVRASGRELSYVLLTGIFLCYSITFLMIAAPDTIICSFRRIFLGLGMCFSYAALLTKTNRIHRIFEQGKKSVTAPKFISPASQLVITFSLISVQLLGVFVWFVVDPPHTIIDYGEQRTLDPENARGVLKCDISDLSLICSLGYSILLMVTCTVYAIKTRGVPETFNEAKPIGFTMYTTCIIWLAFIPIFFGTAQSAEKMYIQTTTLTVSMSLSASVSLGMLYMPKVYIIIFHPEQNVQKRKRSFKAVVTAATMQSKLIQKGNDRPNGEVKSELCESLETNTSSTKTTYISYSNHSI", "assay": "rat mGluR8 modulators via GIRK flux, primary screen, cell-based, thallium flux, HTS (AID 488969)", "details": "HEK293 rat mGluR8, GIRK (G protein-gated inwardly rectifying potassium channel) thallium flux, FluoZin2; at 10 µM; stronger effect = higher value; submaximal glutamate (EC20) added with thallium"}
{"compound": "O=C(Nc1ccc(Cl)cc1C(=O)NCC1CCCO1)c1ccc(Cl)cc1Cl", "note": "(stereo not drawn)", "z-score": -0.284}
{"compound": "O=C1C2C3C=CC(C3=C3CCCCC3)C2C(=O)N1c1ccccc1", "note": "(stereo not drawn)", "z-score": -0.0345}
{"compound": "C=CCn1cc(C(=O)NCCCOCC)c(=O)c2cc(S(=O)(=O)N(CC)CC)ccc21", "z-score": -0.483}
{"compound": "Cc1ccc(CCNC(=O)C2CCN(S(=O)(=O)c3c(C)nn(C)c3C)CC2)cc1", "z-score": -0.368}
{"compound": "CCOC(=O)c1ccccc1N/C=C/C(=O)c1ccccc1", "z-score": -0.792}
{"compound": "O=C(NC(C(=O)c1ccccc1)n1ccc(=O)[nH]c1=O)c1ccccc1", "note": "(stereo not drawn)", "z-score": -0.0844}
{"compound": "CC1CC1c1ccc(/C=C(\\C#N)C(=O)Nc2ccccc2Cl)o1", "note": "(stereo not drawn)", "z-score": 0.799}
{"compound": "O=C(N/N=C/c1ccco1)C1CC1c1ccccc1", "note": "(stereo not drawn)", "z-score": -0.0248}
{"compound": "CCOc1ccc(NC(=S)Nc2ccc(C)c([N+](=O)[O-])c2)cc1", "z-score": 0.652}
{"compound": "CC1CC(C)CN(c2ncc3c(n2)CC(c2ccc(Cl)cc2)CC3=O)C1", "note": "(stereo not drawn)", "z-score": -0.984}
{"compound": "CC(c1ccccc1)N1C(=O)NC(NC(=O)C(C)(C)C)(C(F)(F)F)C1=O", "note": "(stereo not drawn)", "z-score": -0.189}
{"compound": "CC(C)N1CCC(=NNC(=O)c2ccccc2[N+](=O)[O-])CC1", "z-score": 0.134}
{"compound": "Cn1nnnc1SCC(=O)N1CCCc2ccccc21", "z-score": -0.211}
{"compound": "Cc1nc(NC(=O)CSc2nnc(Cn3nnc4ccccc43)n2C)sc1C", "z-score": 0.14}
{"compound": "CCN=C1SCC(=O)N1c1ccc(OC)cc1", "z-score": -0.307}
{"compound": "CN(C)c1ccc(/C=C(/C#N)C(=O)NCc2ccccc2)o1", "z-score": -0.277}
{"compound": "COC(=O)c1ccc2c(=O)sc(N3CCC(C(N)=O)CC3)nc2c1", "z-score": -0.774}
{"compound": "CN1CCN(CC(=O)O)CC1", "z-score": 0.203}
{"compound": "C[C@]12CCC3C(CC=C4C[C@@H](O)CC[C@@]43C)C1CCC2[C@]1(C)CCC(=O)O1", "note": "(stereo partly drawn)", "z-score": 0.00243}
{"compound": "COc1ccc(OC)c(-c2cc(C(=O)Nc3c(C)nn(Cc4ccc(Cl)cc4)c3C)no2)c1", "z-score": -1.03}
{"compound": "O=C1c2cnc3nc(SCc4cccc(Cl)c4)nn3c2CC2c3ccccc3CCN12", "note": "(stereo not drawn)", "z-score": 0.456}
{"compound": "O=C(O)c1ccc2c(c1)C(=O)N(c1ccc(Cl)cn1)C2=O", "z-score": -1.75}
{"compound": "CCn1c(C)c(C2=CCN(S(=O)(=O)c3ccc(C)cc3)CC2)c2ccccc21", "z-score": 0.0891}
{"compound": "CCn1cc(C(=O)O)c(=O)c2cc(F)c(N/N=C/c3ccccc3[N+](=O)[O-])cc21", "z-score": -0.392}
{"compound": "CC1CCCN(c2ccc(C(=O)OCC(=O)N3c4ccccc4Sc4ccccc43)cc2[N+](=O)[O-])C1", "note": "(stereo not drawn)", "z-score": -0.269}
{"compound": "COc1ccc(C(=O)COc2ccccc2N2C(=O)C3C4C=CC(C4)C3C2=O)cc1", "note": "(stereo not drawn)", "z-score": -0.531}
{"compound": "CCC(=O)NC(NC(=O)CC)C(Cl)Cl", "z-score": 0.0473}
{"compound": "CCSC1(SCC)N=C(N)C2(C#N)C(c3ccccc3)NC3=C(CCC3)C12C#N", "note": "(stereo not drawn)", "z-score": 0.00871}
{"compound": "CC(Sc1nc2c(c(=O)n(C)c(=O)n2C)n1Cc1cc2c(cc1Cl)OCO2)C(=O)O", "note": "(stereo not drawn)", "z-score": -0.0886}
{"compound": "O=C1CCCC2=C1C(c1cccc(Br)c1)n1nc(-c3ccco3)nc1N2", "note": "(stereo not drawn)", "z-score": 0.00784}
{"compound": "N/C(=N\\OC(=O)c1ccc(Cl)cc1Cl)c1ccccc1", "z-score": -0.281}
{"compound": "O=C(Cc1cccc(C(F)(F)F)c1)NCc1ccc(Cl)cc1", "z-score": -0.22}
{"compound": "CCNC(=O)NC(=O)C(C)OC(=O)c1ccc(-n2nc(SC)sc2=S)cc1", "note": "(stereo not drawn)", "z-score": -0.00926}
{"compound": "Cc1nc(NC(=O)c2ccccc2)sc1-c1csc(NCc2ccco2)n1", "z-score": 0.00275}
{"compound": "COc1ccccc1-n1cnc2cc(NCc3ccccn3)ccc21", "z-score": -0.00719}
{"compound": "CSc1nncc(/C(C)=N/O)n1", "z-score": 0.701}
{"compound": "O=C(Nc1nc2c(s1)COc1ccccc1-2)c1cccs1", "z-score": -0.346}
{"compound": "Nc1nc(SCC(=O)N2CCCC2)[nH]c(=O)c1NC(=O)c1ccco1", "z-score": 0.975}
{"compound": "Cn1c2ccc(Cl)cc2c2nc3ccccc3nc21", "z-score": 0.699}
{"compound": "COc1ccc(Br)cc1C1NC(=O)NC(C)=C1C(=O)N(C)C", "note": "(stereo not drawn)", "z-score": 0.177}
{"compound": "Cc1ccc(SCc2nc(N)nc(Nc3ccccc3C)n2)c(C)c1", "z-score": 0.274}
{"compound": "O=C(NCCNC(=O)c1cc(OCC(F)(F)F)ccc1OCC(F)(F)F)Nc1ccc(Cl)cc1", "z-score": 0.298}
{"compound": "Cc1ccc(OCC(=O)NNC(=O)C2CCN(c3nc(C)cc(C)n3)CC2)cc1", "z-score": -0.168}
{"compound": "CCN1c2ccccc2-c2nc3ccccc3n2C1c1ccco1", "note": "(stereo not drawn)", "z-score": -1.86}
{"compound": "CCOC(=O)CNC(c1ccccc1)c1cc(Br)ccc1NC(=O)OCC", "note": "(stereo not drawn)", "z-score": -1.5}
{"compound": "CC(C)CCn1c(SCC(=O)OCn2nnc3ccccc3c2=O)nc2ccccc2c1=O", "z-score": 0.629}
{"compound": "COc1ccc(S(N)(=O)=O)cc1C(=O)NCCCN1CCN(c2ccc(C)cc2)CC1", "z-score": 0.969}
{"compound": "Cc1ccc(C)c(NC(=S)NC(NC(=O)Cc2ccccc2)C(Cl)(Cl)Cl)c1", "note": "(stereo not drawn)", "z-score": -0.24}
{"compound": "COc1cc2c(cc1NC(=O)COc1ccccc1OC)oc1ccccc12", "z-score": "active: 5.54"}
{"compound": "COc1ccccc1NC(=S)NNC(=O)c1ccccc1", "z-score": -0.162}
{"compound": "Cc1cccc(N(C)C(=O)COc2cc(=O)n(C)c3ccccc23)c1", "z-score": 0.0876}
{"compound": "COc1ccccc1Cn1c(=O)c2ccccc2n2c(Sc3ncnc4sccc34)nnc12", "z-score": -0.65}
{"compound": "Cc1ccc2ccccc2c1Cn1c(-n2ccnc2)nc2c1c(=O)n(C)c(=O)n2C", "z-score": 0.134}
{"compound": "O=C1CC(c2ccccc2Cl)CC(O)=C1C=Nc1ccccc1", "note": "(stereo not drawn)", "z-score": 0.0348}
{"compound": "Cc1nc(NC(=O)C(Cl)Cl)sc1C(=O)N(C)C", "z-score": -0.0454}
{"compound": "CCCOc1cc(C)c(S(=O)(=O)n2ccc(C)n2)cc1C", "z-score": -0.146}
{"compound": "CC(NC(=O)C1CCCN1S(=O)(=O)c1cccc2cccnc12)c1ccccc1", "note": "(stereo not drawn)", "z-score": 0.123}
{"compound": "CSc1nnc(-c2ccncc2)n1CCCN1CCCC1=O", "z-score": -0.726}
{"compound": "CCc1ccc(-c2cc(C(F)(F)F)n3nc(C(=O)Nc4cnn(Cc5ccccc5C)c4)cc3n2)s1", "z-score": -0.217}
{"compound": "Cc1ccccc1NC1=NS(=O)(=O)c2ccccc21", "z-score": 0.174}
{"compound": "CCOC(=O)C1=C(C)N=c2sc(=C(C)C)c(=O)n2C1c1ccc(N(C)C)cc1", "note": "(stereo not drawn)", "z-score": 0.0897}
{"compound": "COc1ccc(C)cc1S(=O)(=O)N(CC(=O)Nc1cccc([N+](=O)[O-])c1)c1ccc(C)cc1", "z-score": -0.677}
{"compound": "CCOC(=O)c1oc2cc(OCC(N)=O)ccc2c(=O)c1-c1ccc(OC)c(OC)c1", "z-score": -0.565}
{"compound": "COC(=O)Nc1nnc(Cc2ccccc2)s1", "z-score": -0.412}
{"compound": "CN(CC(=O)NCc1ccncc1)S(=O)(=O)c1ccc(F)cc1", "z-score": 0.309}
{"compound": "CC(=O)Oc1ccc(N(C(C)=O)S(=O)(=O)c2cccs2)c2ccccc12", "z-score": "active: 4.9"}
{"compound": "COc1ccccc1N1CCN(C(c2ccccn2)c2nnnn2C2CCCCC2)CC1", "note": "(stereo not drawn)", "z-score": -0.468}
{"compound": "COc1cccc(N(C(=O)Cn2nnc(-c3ccc(C)o3)n2)C(C(=O)NC(C)(C)C)c2cccs2)c1", "note": "(stereo not drawn)", "z-score": 0.439}
